# The IC50 comes from the fitted curve, where viability falls to half of the control; a fit beyond the top or the lowest dose is shown as a bound at that dose. AUC, from the same fit, is the share of area under the viability curve across the 256-fold dose range; the more sensitive the line, the further below 1. A top dose marked as inferred is not printed in the source and was worked back from the curve model. For some of these results: An entry number marks a drug with two screens in the source, which often give different values.
# Compound: Cc1cccc(-c2[nH]c(C(C)(C)C)nc2-c2ccc3nccnc3c2)n1 [SB-525334]
# Assay: Viability of human cancer cell lines after 72 h of drug (GDSC screen)
# Details: top dose 20 µM; top dose inferred
# Procedure: (§1)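 Human cancer cell lines in 384-well plates, medium with 10% serum, drug for 72 h over a 256-fold dose range (nine 2-fold or five 4-fold steps up to the top dose). Adherent lines were fixed and stained with the nucleic acid dye Syto60, suspension lines read with resazurin; signal relative to control wells, capped at 0 and 100%. One two-parameter sigmoid per drug and line, fitted in a mixed model over all curves with the slope shared within a line.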
Cell Line,AUC,IC50
"GP5d (large intestine, adherent)",0.991,> 20 µM
"IM-95 (stomach, adherent)",0.954,> 20 µM
"OVMIU (ovary, adherent)",0.849,> 20 µM
"P12-ICHIKAWA (T-cell lymphoblastic leukaemia, suspension)",0.981,> 20 µM
"PA-TU-8902 (pancreas, adherent)",0.969,> 20 µM
"PANC-03-27 (pancreas, adherent)",0.829,11.3 µM
"PANC-04-03 (pancreas, adherent)",0.952,> 20 µM
"PC-3 [JPC-3] (lung adenocarcinoma, adherent)",0.951,> 20 µM
"PCI-15A (head and neck, adherent)",0.987,> 20 µM
"PE/CA-PJ15 (head and neck, adherent)",0.955,> 20 µM
"RH-41 (rhabdomyosarcoma, adherent)",0.986,> 20 µM
"RPMI-2650 (head and neck, adherent)",0.971,> 20 µM
"SAS (head and neck, adherent)",0.963,> 20 µM
"SBC-5 (small cell lung carcinoma, adherent)",0.919,> 20 µM
"SCC-9 (head and neck, adherent)",0.978,> 20 µM
"SCC-25 (head and neck, adherent)",0.929,> 20 µM
"SISO (cervix, adherent)",0.948,> 20 µM

Cell Line,AUC,IC50
"SK-HEP-1 (liver, adherent)",0.965,> 20 µM
"SKG-IIIa (cervix, adherent)",0.983,> 20 µM
"SNU-182 (liver, adherent)",0.974,> 20 µM
"SNU-423 (liver, adherent)",0.957,> 20 µM
"SNU-449 (liver, adherent)",0.902,> 20 µM
"SUIT-2 (pancreas, adherent)",0.516,1.39 µM
"SW13 (adrenal gland, adherent)",0.988,> 20 µM
"SW780 (bladder, adherent)",0.986,> 20 µM
"SW1417 (large intestine, adherent)",0.973,> 20 µM
"SiHa (cervix, adherent)",0.987,> 20 µM
"T98G (glioma, adherent)",0.981,> 20 µM
"T-T (oesophagus, adherent)",0.943,> 20 µM
"TGBC11TKB (stomach, adherent)",0.985,> 20 µM
"U-118-MG (glioma, adherent)",0.952,> 20 µM
"WM793B (melanoma, adherent)",0.905,> 20 µM
"YAPC (pancreas, adherent)",0.961,> 20 µM
"YKG-1 (glioma, adherent)",0.964,> 20 µM

# Compound: O=C(c1cc(Cc2n[nH]c(=O)c3ccccc23)ccc1F)N1CCN(C(=O)C2CC2)CC1 [Olaparib]
# Assay: as above
# Details: top dose 5 µM; screen: GDSC drug entry 1017; top dose inferred
# Procedure: as §1
Cell Line,AUC,IC50
"OVMIU (ovary, adherent)",0.981,> 5 µM
"P12-ICHIKAWA (T-cell lymphoblastic leukaemia, suspension)",0.978,> 5 µM
"PA-TU-8902 (pancreas, adherent)",0.98,> 5 µM
"PANC-03-27 (pancreas, adherent)",0.988,> 5 µM
"PANC-04-03 (pancreas, adherent)",0.967,> 5 µM
"PC-3 [JPC-3] (lung adenocarcinoma, adherent)",0.981,> 5 µM
"PCI-15A (head and neck, adherent)",0.988,> 5 µM
"PE/CA-PJ15 (head and neck, adherent)",0.958,> 5 µM
"RH-41 (rhabdomyosarcoma, adherent)",0.97,> 5 µM
"RPMI-2650 (head and neck, adherent)",0.96,> 5 µM
"SAS (head and neck, adherent)",0.942,> 5 µM
"SBC-5 (small cell lung carcinoma, adherent)",0.975,> 5 µM
"SCC-9 (head and neck, adherent)",0.981,> 5 µM
"SCC-25 (head and neck, adherent)",0.984,> 5 µM
"SISO (cervix, adherent)",0.987,> 5 µM
"SK-HEP-1 (liver, adherent)",0.978,> 5 µM

Cell Line,AUC,IC50
"SKG-IIIa (cervix, adherent)",0.983,> 5 µM
"SNU-182 (liver, adherent)",0.986,> 5 µM
"SNU-423 (liver, adherent)",0.981,> 5 µM
"SNU-449 (liver, adherent)",0.986,> 5 µM
"SUIT-2 (pancreas, adherent)",0.966,> 5 µM
"SW13 (adrenal gland, adherent)",0.986,> 5 µM
"SW780 (bladder, adherent)",0.952,> 5 µM
"SW1417 (large intestine, adherent)",0.986,> 5 µM
"SiHa (cervix, adherent)",0.987,> 5 µM
"T98G (glioma, adherent)",0.96,> 5 µM
"T-T (oesophagus, adherent)",0.961,> 5 µM
"TGBC11TKB (stomach, adherent)",0.991,> 5 µM
"U-118-MG (glioma, adherent)",0.984,> 5 µM
"WM793B (melanoma, adherent)",0.961,> 5 µM
"YAPC (pancreas, adherent)",0.983,> 5 µM
"YKG-1 (glioma, adherent)",0.927,> 5 µM

# Same assay, conditions: top dose 10 µM; screen: GDSC drug entry 1495
Cell Line,AUC,IC50
"GP5d (large intestine, adherent)",0.989,> 10 µM
"H2810 (mesothelioma, adherent)",0.958,> 10 µM
"OVMIU (ovary, adherent)",0.905,> 10 µM
"P12-ICHIKAWA (T-cell lymphoblastic leukaemia, suspension)",0.991,> 10 µM
"PA-TU-8902 (pancreas, adherent)",0.93,> 10 µM
"PANC-03-27 (pancreas, adherent)",0.968,> 10 µM
"PC-3 [JPC-3] (lung adenocarcinoma, adherent)",0.943,> 10 µM
"PCI-15A (head and neck, adherent)",0.981,> 10 µM
"PE/CA-PJ15 (head and neck, adherent)",0.954,> 10 µM
"RH-41 (rhabdomyosarcoma, adherent)",0.959,> 10 µM
"RPMI-2650 (head and neck, adherent)",0.842,7.9 µM
"SAS (head and neck, adherent)",0.869,> 10 µM
"SBC-5 (small cell lung carcinoma, adherent)",0.971,> 10 µM
"SCC-9 (head and neck, adherent)",0.875,> 10 µM
"SCC-25 (head and neck, adherent)",0.955,> 10 µM
"SISO (cervix, adherent)",0.863,8.03 µM
"SK-HEP-1 (liver, adherent)",0.884,9.62 µM

Cell Line,AUC,IC50
"SKG-IIIa (cervix, adherent)",0.918,> 10 µM
"SNU-182 (liver, adherent)",0.936,> 10 µM
"SNU-423 (liver, adherent)",0.944,> 10 µM
"SNU-449 (liver, adherent)",0.97,> 10 µM
"SUIT-2 (pancreas, adherent)",0.938,> 10 µM
"SW13 (adrenal gland, adherent)",0.977,> 10 µM
"SW780 (bladder, adherent)",0.942,> 10 µM
"SW1417 (large intestine, adherent)",0.976,> 10 µM
"SiHa (cervix, adherent)",0.947,> 10 µM
"T98G (glioma, adherent)",0.945,> 10 µM
"T-T (oesophagus, adherent)",0.958,> 10 µM
"TGBC11TKB (stomach, adherent)",0.984,> 10 µM
"U-118-MG (glioma, adherent)",0.911,> 10 µM
"WM793B (melanoma, adherent)",0.922,> 10 µM
"YAPC (pancreas, adherent)",0.96,> 10 µM
"YKG-1 (glioma, adherent)",0.913,> 10 µM

# Compound: CNC(=O)c1ccc(Nc2cc(Nc3ccccc3S(=O)(=O)C(C)C)c3cc[nH]c3n2)nc1 [HG-5-113-01]
# Assay: as above
# Details: top dose 10 µM; top dose inferred
# Procedure: as §1
Cell Line,AUC,IC50
"GP5d (large intestine, adherent)",0.806,4.47 µM
"H2810 (mesothelioma, adherent)",0.861,9.94 µM
"IM-95 (stomach, adherent)",0.891,> 10 µM

# Compound: NC(=O)c1ccc(N(C(N)=O)c2c(F)cccc2F)nc1-c1ccc(F)cc1F [VX-702]
# Assay: as above
# Details: top dose 2 µM; top dose inferred
# Procedure: as §1
Cell Line,AUC,IC50
"OVMIU (ovary, adherent)",0.981,> 2 µM
"P12-ICHIKAWA (T-cell lymphoblastic leukaemia, suspension)",0.989,> 2 µM
"PA-TU-8902 (pancreas, adherent)",0.983,> 2 µM
"PANC-03-27 (pancreas, adherent)",0.984,> 2 µM
"PANC-04-03 (pancreas, adherent)",0.965,> 2 µM
"PC-3 [JPC-3] (lung adenocarcinoma, adherent)",0.981,> 2 µM
"PCI-15A (head and neck, adherent)",0.792,0.916 µM
"PE/CA-PJ15 (head and neck, adherent)",0.979,> 2 µM
"RH-41 (rhabdomyosarcoma, adherent)",0.985,> 2 µM
"RPMI-2650 (head and neck, adherent)",0.974,> 2 µM
"SAS (head and neck, adherent)",0.958,> 2 µM
"SBC-5 (small cell lung carcinoma, adherent)",0.99,> 2 µM
"SCC-9 (head and neck, adherent)",0.981,> 2 µM
"SCC-25 (head and neck, adherent)",0.984,> 2 µM
"SISO (cervix, adherent)",0.988,> 2 µM
"SK-HEP-1 (liver, adherent)",0.989,> 2 µM

Cell Line,AUC,IC50
"SKG-IIIa (cervix, adherent)",0.983,> 2 µM
"SNU-182 (liver, adherent)",0.979,> 2 µM
"SNU-423 (liver, adherent)",0.979,> 2 µM
"SNU-449 (liver, adherent)",0.986,> 2 µM
"SUIT-2 (pancreas, adherent)",0.983,> 2 µM
"SW13 (adrenal gland, adherent)",0.987,> 2 µM
"SW780 (bladder, adherent)",0.986,> 2 µM
"SW1417 (large intestine, adherent)",0.986,> 2 µM
"SiHa (cervix, adherent)",0.987,> 2 µM
"T98G (glioma, adherent)",0.99,> 2 µM
"T-T (oesophagus, adherent)",0.986,> 2 µM
"TGBC11TKB (stomach, adherent)",0.992,> 2 µM
"U-118-MG (glioma, adherent)",0.986,> 2 µM
"WM793B (melanoma, adherent)",0.984,> 2 µM
"YAPC (pancreas, adherent)",0.978,> 2 µM
"YKG-1 (glioma, adherent)",0.987,> 2 µM

# Reference: the supplement of paper PMC4967469
